Values marked as one replicate rest on one cluster of the flow cell; about a third of the high ones do not repeat.
System: ATP
Experiment: switch fluorescence ratio, 500 uM ATP over buffer (Cy3 cluster intensity, sum of 5 cycles each) (fold (ratio)); higher = stronger signal-on switching upon ATP binding; sequences stand for … in TCGTCGGCAGCGTCAGATGTGTATAAGAGACAGTTTTTTTTTTTTTTTTTTTTTTTTT…TC
Conditions: aptamer strand: ATP DNA aptamer (quencher-CACCTGGGGGAGTATTGCGGAGGAAGG + anchor), 100 nM annealed; ATP concentration: 500 uM; one replicate
Procedure, shortened: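 After annealing to 100 nM quencher-labelled ATP aptamer, Cy3-labelled switching-strand clusters on a modified Illumina MiSeq flow-cell were imaged in selection buffer. A second image followed after 15 min with 500 uM ATP at 22 °C, and five such buffer/ATP cycles were done, each separated by NaOH stripping and re-annealing. The fluorescence ratio, averaged per switch-domain sequence, is summed target-cycle over summed buffer-cycle Cy3 intensity per cluster, with clusters outside 100-1000 RFU excluded.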
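Further: ATP exposure 15 min at 22 °C before imaging.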

| Sequence | switch fluorescence ratio |
| --- | --- |
| GTGACATAGG | 1.06 |
| GCTTTTCCAC | 0.971 |
| TGAGGGTTT | 1.02 |
| CGTGCAGGAA | 0.988 |
| CACTATAGGG | 0.987 |
| TTGTTGGACG | 0.969 |
| TACGGCCGGG | 1 |
| CACTGTCGTT | 1.02 |
| TTTGGGGCC | 0.986 |
| CAAATTCACG | 1.01 |
| CATCGGACC | 1.1 |
| CTTGCTGTAG | 1.07 |
| TGAGCATACT | 2.96 |
| ATTCGGATTC | 1.01 |
| TTATATCGAT | 1.01 |
| AAAGTAGTTC | 0.964 |
| TCGTGTCCAG | 1.01 |
| AAGGTTTAGC | 0.973 |
| CTGCAGGGGT | 1.13 |
| TTACTAAGCA | 1.08 |
| TGGCTTTTCG | 0.976 |
| ATAAAGCCCT | 0.997 |
| GTTGTAGGCA | 0.994 |

| Sequence | switch fluorescence ratio |
| --- | --- |
| TCAAGTTGGA | 1.03 |
| CGCTGGTCCG | 0.975 |
| TAGTCCCAGT | 1.07 |
| CGGAAACTGG | 0.984 |
| ACTTGCGGCC | 1.05 |
| AAATTCAGTA | 1.03 |
| ATTATGACGT | 0.978 |
| GTTAACAATG | 1.02 |
| AAGTACCAGG | 1.37 |
| CGCTCGAGAT | 1.04 |
| ATCTATTGTC | 0.993 |
| TAAGTGGCG | 0.969 |
| GGGCCATGCG | 0.995 |
| GATTGGTGGA | 0.998 |
| TTTCCAAACC | 1.33 |
| ACCTGAAGGA | 0.985 |
| AGGGGTGGTG | 0.963 |
| GGCGTAGGGA | 1.06 |
| CAGTTCCGCG | 1.16 |
| TTCCTGAGGT | 1.08 |
| GCCAAAAGTC | 0.962 |
| GTACACGCCC | 1.19 |
| ACCATTAGTC | 1.04 |

| Sequence | switch fluorescence ratio |
| --- | --- |
| GAAGATTATC | 1.1 |
| ATTTCGAGGG | 1.01 |
| CACAAAGTCT | 1.01 |
| AATGGTTCT | 0.971 |
| CTTAGCTTGG | 1.04 |
| AATTACAGTT | 0.998 |
| TCACTTCCAA | 1.16 |
| TTCCTATTGT | 1.04 |
| TTCAGTATAA | 1.12 |
| GGATTCATTA | 0.965 |
| TTCAATTACA | 1.01 |
| CTTGGTACCG | 0.943 |
| AGGTCGCGGC | 0.988 |
| CCCTTGTACA | 1.07 |
| ATACCGCTAA | 1.61 |
| AGAATACAGC | 1.01 |
| TCATAGCCTT | 1.07 |
| TTTGGCCAC | 1.01 |
| CACTCAGCC | 1.1 |
| CCATTCGAAC | 1.07 |
| GCCCAACGCA | 1.27 |
| TGCGCCAATT | 0.925 |
| CAGTCTACAA | 1.01 |

| Sequence | switch fluorescence ratio |
| --- | --- |
| GACAGTTGAG | 1.01 |
| CCTTACCTAC | 2.11 |
| AGTACCTAGT | 1.01 |
| CTGCTCACTT | 0.979 |
| ACCTCAAAGT | 1.02 |
| GACGGCCACG | 0.986 |
| TACCCGAAAA | 2.11 |
| TGCAAAGGAG | 0.981 |
| TTGGTTTAAC | 0.994 |
| GGCTTAGGTA | 0.987 |
| TGCTTTTAG | 0.988 |
| ATGGGTGCAG | 0.978 |
| TAACCCACTA | 1.12 |
| GCTGATAAAA | 0.988 |
| GTATACCGT | 0.998 |
| CAAGCAATAA | 2.55 |
| CAGGGGACCA | 1.02 |
| GGGACGTTGT | 1.09 |
| ATCTTGTAG | 1.02 |
| TTGCGGTGAT | 0.991 |
| GCAAGGGGCC | 0.999 |
| CGGACCCGGT | 1.09 |
| TCGCAACTGT | 1.41 |

| Sequence | switch fluorescence ratio |
| --- | --- |
| TCTATCGGTT | 1 |
| ATCCCTGGGC | 1.05 |
| GGGGGTGCTA | 0.952 |
| GGTATGCAAC | 0.968 |
| ATTCTGCGGT | 1.03 |
| AACTGCGCCG | 1.07 |
| CCGTGTCCCG | 1.04 |
| GATCCAGTGC | 1.29 |
| TTGCCAAAAG | 1.06 |
| GTGCAAGATT | 1.03 |
| CTACCATGCT | 1.07 |
| GCTACCGGAC | 1.73 |
| AGTCCATCTT | 1.02 |
| TTGATAGTTA | 1.02 |
| CGGGTTACGT | 0.949 |
| CGGTCAGTAT | 1.01 |
| TGTTAAGGGT | 1.02 |
| TTAGAGCCA | 1.02 |
| GCATAAGAAC | 1.03 |
| GGGTTTATTC | 1.01 |
| CAGTTAGAAG | 1.04 |
| GCGTGAAAGT | 0.943 |
| TTCGTCAGTA | 1.02 |

| Sequence | switch fluorescence ratio |
| --- | --- |
| AGCCTCTGGG | 0.979 |
| AAGTTTTAAT | 1.02 |
| AGGGAATAAG | 1.03 |
| TCTAGCCCAT | 0.991 |
| CCCATTCGGG | 0.963 |
| GCGGTAGGAG | 0.986 |
| GTAGGCCGAA | 0.961 |
| TAATTGCGCG | 0.967 |
| TATGAAGGCT | 0.995 |
| GATTCAGCGA | 1.05 |
| ATATTTTTCA | 0.966 |
| AATTGCGAGG | 0.982 |
| TAACGACAGA | 1 |
| ACATAGGAAA | 0.998 |
| AAGGGGTA | 1.06 |
| AACAAAAGAT | 0.943 |
| AAGAACCGGC | 1.13 |
| TGTGAGAAGC | 0.993 |
| AGATCGGGAA | 0.973 |
| ACTCCTTCAA | 2.33 |
| GGGCTAGGGC | 1.03 |
| AATTCGATCT | 1 |
| GAAGCTGGGC | 1.01 |

| Sequence | switch fluorescence ratio |
| --- | --- |
| CTCGAAGA | 0.975 |
| ATGGTACATT | 1.03 |
| CCTAGGGATA | 0.975 |
| TTTCAAAATA | 0.995 |
| AGATTAAACC | 1.05 |
| CTATGCAAGT | 1.28 |
| GATGCCGTAT | 0.997 |
| CTCGGAACGG | 1.01 |
| TCCATACCTG | 1 |
| AGCTAGACAT | 0.971 |
| CAATGAGGGT | 1.05 |
| TGCTGCTAC | 1.77 |
| AGTAGTGCGG | 0.978 |
| ATAGGGGTAG | 0.975 |
| CCTGAGTACC | 1.02 |
| GTACCCCGC | 1.22 |
| AAGGATAAGT | 0.997 |
| GCTAATACAG | 1.01 |
| GATGTTAAGT | 1.03 |
